Reference: the supplement of paper PMC3722116

Columns and labels:
chloroquine [1] = compound: T1, CCN(CC)CCCC(C)Nc1ccnc2cc(Cl)ccc12 [chloroquine]
Experimental: (§1)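 Hypoxanthine uptake by fresh isolates, duplicate serial dilutions, 24 h of drug plus 18 h after the label; sigmoid fit per isolate.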

artesunate [2] = compound: T2, C[C@H]1[C@H](OC(=O)CCC(=O)O)O[C@@H]2O[C@@]3(C)CC[C@H]4[C@H](C)CC[C@@H]1[C@@]24OO3 [artesunate]
Experimental: as §1

mefloquine [3] = compound: T3, OC(c1cc(C(F)(F)F)nc2c(C(F)(F)F)cccc12)C1CCCCN1 [mefloquine]
Experimental: as §1

chloroquine [4] = compound: T1, chloroquine; test: slope of the dose-response curve (dimensionless); higher = steeper concentration-effect curve
Experimental: as §1

artesunate [5] = compound: T2, artesunate; test: as above
Experimental: as §1

mefloquine [6] = compound: T3, mefloquine; test: as above
Experimental: as §1

Question: How did the “EC50 of parasite growth” value (chloroquine [1]) turn out when “Plasmodium falciparum isolate 122 (pfmdr1 allele: 86N, 1042N, pfmdr1 copies: 3)” was run?
Answer: 0.196 µg/mL

Question: What about the “EC50 of parasite growth” value (artesunate [2]) of the same test system?
Answer: 0.0153 µg/mL

Question: And the “EC50 of parasite growth” value (mefloquine [3])?
Answer: 0.12 µg/mL

Question: What about the slope (chloroquine [4]) of the same test system?
Answer: 4.58

Question: What about the slope (artesunate [5]) of the same test system?
Answer: 3.51

Question: What about the slope (mefloquine [6]) of the same test system?
Answer: 3.02

Question: Which results are given for “Plasmodium falciparum isolate 371 (pfmdr1 allele: 86N, 1042N, pfmdr1 copies: 2)”?
Answer: EC50 of parasite growth (chloroquine [1]): 0.151 µg/mL; EC50 of parasite growth (artesunate [2]): 0.00359 µg/mL; slope (chloroquine [4]): 6.75; slope (artesunate [5]): 9.99

Question: “Plasmodium falciparum isolate 302 (pfmdr1 allele: 86N, 1042N, pfmdr1 copies: 2)” was tested. Which “EC50 of parasite growth” value (chloroquine [1]) did it give?
Answer: 0.0891 µg/mL

Question: And the “EC50 of parasite growth” value (mefloquine [3])?
Answer: 0.124 µg/mL

Question: What about the slope (chloroquine [4]) of the same test system?
Answer: 4.94

Question: What about the slope (mefloquine [6]) of the same test system?
Answer: 9.99

Question: “Plasmodium falciparum isolate 95 (pfmdr1 allele: 86N, 1042N, pfmdr1 copies: 2)” was tested. Which “EC50 of parasite growth” value (chloroquine [1]) did it give?
Answer: 0.227 µg/mL

Question: What about the “EC50 of parasite growth” value (artesunate [2]) of the same test system?
Answer: 0.000968 µg/mL

Question: And the “EC50 of parasite growth” value (mefloquine [3])?
Answer: 0.0248 µg/mL

Question: What about the slope (chloroquine [4]) of the same test system?
Answer: 3.76

Question: What about the slope (artesunate [5]) of the same test system?
Answer: 2.49

Question: What about the slope (mefloquine [6]) of the same test system?
Answer: 1.84

Question: Which results are given for “Plasmodium falciparum isolate 311 (pfmdr1 allele: 86N, 1042N, pfmdr1 copies: 3)”?
Answer: EC50 of parasite growth (chloroquine [1]): 0.201 µg/mL; EC50 of parasite growth (artesunate [2]): 0.0027 µg/mL; EC50 of parasite growth (mefloquine [3]): 0.143 µg/mL; slope (chloroquine [4]): 4.87; slope (artesunate [5]): 5.95; slope (mefloquine [6]): 3.66

Question: For “Plasmodium falciparum isolate 97 (pfmdr1 allele: 86N, 1042N, pfmdr1 copies: 2)”, which “EC50 of parasite growth” value (chloroquine [1]) is on record?
Answer: 0.104 µg/mL

Question: And the “EC50 of parasite growth” value (mefloquine [3])?
Answer: 0.0464 µg/mL

Question: What about the slope (chloroquine [4]) of the same test system?
Answer: 4.64

Question: And the slope (mefloquine [6])?
Answer: 1.69

Question: What does the source list for “Plasmodium falciparum isolate 115 (pfmdr1 allele: 86N, 1042N, pfmdr1 copies: 1)”?
Answer: EC50 of parasite growth (chloroquine [1]): 0.375 µg/mL; EC50 of parasite growth (artesunate [2]): 0.000459 µg/mL; EC50 of parasite growth (mefloquine [3]): 0.0145 µg/mL; slope (chloroquine [4]): 3.55; slope (artesunate [5]): 2.77; slope (mefloquine [6]): 1.71

Question: What does the source list for “Plasmodium falciparum isolate 70 (pfmdr1 allele: 86N, 1042N, pfmdr1 copies: 2)”?
Answer: EC50 of parasite growth (chloroquine [1]): 0.0914 µg/mL; EC50 of parasite growth (artesunate [2]): 0.00094 µg/mL; EC50 of parasite growth (mefloquine [3]): 0.074 µg/mL; slope (chloroquine [4]): 3.39; slope (artesunate [5]): 9.7; slope (mefloquine [6]): 4.13

Question: Which “EC50 of parasite growth” value (chloroquine [1]) does the source give for “Plasmodium falciparum isolate 186 (pfmdr1 allele: 86N, 1042N, pfmdr1 copies: 1)” here?
Answer: 0.0905 µg/mL

Question: And the “EC50 of parasite growth” value (artesunate [2])?
Answer: 0.00201 µg/mL

Question: What about the “EC50 of parasite growth” value (mefloquine [3]) of the same test system?
Answer: 0.0589 µg/mL

Question: And the slope (chloroquine [4])?
Answer: 3.1

Question: And the slope (artesunate [5])?
Answer: 5.32

Question: And the slope (mefloquine [6])?
Answer: 1.54

Question: How did the “EC50 of parasite growth” value (chloroquine [1]) turn out when “Plasmodium falciparum isolate 117 (pfmdr1 allele: 86N, 1042N, pfmdr1 copies: 3)” was run?
Answer: 0.0822 µg/mL

Question: What about the “EC50 of parasite growth” value (mefloquine [3]) of the same test system?
Answer: 0.123 µg/mL

Question: And the slope (chloroquine [4])?
Answer: 5.46

Question: And the slope (mefloquine [6])?
Answer: 4.04

Question: Which results are given for “Plasmodium falciparum isolate 108 (pfmdr1 allele: 86N, 1042N, pfmdr1 copies: 2)”?
Answer: EC50 of parasite growth (chloroquine [1]): 0.11 µg/mL; EC50 of parasite growth (artesunate [2]): 0.00337 µg/mL; EC50 of parasite growth (mefloquine [3]): 0.074 µg/mL; slope (chloroquine [4]): 4.21; slope (artesunate [5]): 10; slope (mefloquine [6]): 4.27

Question: Which results are given for “Plasmodium falciparum isolate 242 (pfmdr1 allele: 86N, 1042N, pfmdr1 copies: 1)”?
Answer: EC50 of parasite growth (chloroquine [1]): 0.482 µg/mL; EC50 of parasite growth (artesunate [2]): 0.00356 µg/mL; EC50 of parasite growth (mefloquine [3]): 0.0481 µg/mL; slope (chloroquine [4]): 4.94; slope (artesunate [5]): 3.18; slope (mefloquine [6]): 3.35

Question: For “Plasmodium falciparum isolate 50 (pfmdr1 allele: 86N, 1042N, pfmdr1 copies: 2)”, which “EC50 of parasite growth” value (chloroquine [1]) is on record?
Answer: 0.0885 µg/mL

Question: What about the “EC50 of parasite growth” value (artesunate [2]) of the same test system?
Answer: 0.00267 µg/mL

Question: And the “EC50 of parasite growth” value (mefloquine [3])?
Answer: 0.0889 µg/mL

Question: And the slope (chloroquine [4])?
Answer: 3.72

Question: What about the slope (artesunate [5]) of the same test system?
Answer: 4.19

Question: What about the slope (mefloquine [6]) of the same test system?
Answer: 2.4

Question: With “Plasmodium falciparum isolate 420 (pfmdr1 allele: 86N, 1042N, pfmdr1 copies: 3)” as the test system, how does the “EC50 of parasite growth” value (chloroquine [1]) read?
Answer: 0.295 µg/mL

Question: What about the “EC50 of parasite growth” value (artesunate [2]) of the same test system?
Answer: 0.000839 µg/mL

Question: And the “EC50 of parasite growth” value (mefloquine [3])?
Answer: 0.0263 µg/mL

Question: And the slope (chloroquine [4])?
Answer: 4.56

Question: What about the slope (artesunate [5]) of the same test system?
Answer: 10

Question: And the slope (mefloquine [6])?
Answer: 4.13

Question: Which “EC50 of parasite growth” value (chloroquine [1]) does the source give for “Plasmodium falciparum isolate 201 (pfmdr1 allele: 86Y, pfmdr1 copies: 1)” here?
Answer: 0.217 µg/mL

Question: What about the “EC50 of parasite growth” value (artesunate [2]) of the same test system?
Answer: 0.00075 µg/mL

Question: And the “EC50 of parasite growth” value (mefloquine [3])?
Answer: 0.0184 µg/mL

Question: And the slope (chloroquine [4])?
Answer: 1.99

Question: What about the slope (artesunate [5]) of the same test system?
Answer: 1.66

Question: And the slope (mefloquine [6])?
Answer: 1.26

Question: Which results are given for “Plasmodium falciparum isolate 57 (pfmdr1 allele: 86N, 1042N, pfmdr1 copies: 3)”?
Answer: EC50 of parasite growth (chloroquine [1]): 0.0622 µg/mL; EC50 of parasite growth (artesunate [2]): 0.00371 µg/mL; EC50 of parasite growth (mefloquine [3]): 0.0641 µg/mL; slope (chloroquine [4]): 3.49; slope (artesunate [5]): 6.13; slope (mefloquine [6]): 5.24

Question: Which “EC50 of parasite growth” value (chloroquine [1]) does the source give for “Plasmodium falciparum isolate 37 (pfmdr1 allele: 86N, 1042N, pfmdr1 copies: 3)” here?
Answer: 0.218 µg/mL

Question: And the “EC50 of parasite growth” value (artesunate [2])?
Answer: 0.00294 µg/mL

Question: What about the “EC50 of parasite growth” value (mefloquine [3]) of the same test system?
Answer: 0.0639 µg/mL

Question: And the slope (chloroquine [4])?
Answer: 4.43

Question: And the slope (artesunate [5])?
Answer: 8.56

Question: What about the slope (mefloquine [6]) of the same test system?
Answer: 6.33

Question: For “Plasmodium falciparum isolate 477 (pfmdr1 allele: 86N, 1042N, pfmdr1 copies: 1)”, which “EC50 of parasite growth” value (chloroquine [1]) is on record?
Answer: 0.202 µg/mL

Question: What about the “EC50 of parasite growth” value (artesunate [2]) of the same test system?
Answer: 0.00032 µg/mL

Question: And the “EC50 of parasite growth” value (mefloquine [3])?
Answer: 0.00776 µg/mL

Question: What about the slope (chloroquine [4]) of the same test system?
Answer: 3.17

Question: And the slope (artesunate [5])?
Answer: 2.63

Question: And the slope (mefloquine [6])?
Answer: 1.04

Question: For “Plasmodium falciparum isolate 345 (pfmdr1 allele: 86N, 1042N, pfmdr1 copies: 3)”, which “EC50 of parasite growth” value (chloroquine [1]) is on record?
Answer: 0.105 µg/mL

Question: What about the “EC50 of parasite growth” value (artesunate [2]) of the same test system?
Answer: 0.0183 µg/mL

Question: And the “EC50 of parasite growth” value (mefloquine [3])?
Answer: 0.108 µg/mL

Question: What about the slope (chloroquine [4]) of the same test system?
Answer: 5.05

Question: What about the slope (artesunate [5]) of the same test system?
Answer: 4.21

Question: And the slope (mefloquine [6])?
Answer: 3.14

Question: With “Plasmodium falciparum isolate 417 (pfmdr1 allele: 86N, 1042N, pfmdr1 copies: 1)” as the test system, how does the “EC50 of parasite growth” value (chloroquine [1]) read?
Answer: 0.108 µg/mL

Question: What about the “EC50 of parasite growth” value (artesunate [2]) of the same test system?
Answer: 0.00102 µg/mL

Question: What about the “EC50 of parasite growth” value (mefloquine [3]) of the same test system?
Answer: 0.0461 µg/mL

Question: And the slope (chloroquine [4])?
Answer: 2.11

Question: What about the slope (artesunate [5]) of the same test system?
Answer: 3.65

Question: What about the slope (mefloquine [6]) of the same test system?
Answer: 2.71

Question: With “Plasmodium falciparum isolate 462 (pfmdr1 allele: 86N, 1042N, pfmdr1 copies: 1)” as the test system, how does the “EC50 of parasite growth” value (chloroquine [1]) read?
Answer: 0.128 µg/mL

Question: What about the “EC50 of parasite growth” value (artesunate [2]) of the same test system?
Answer: 0.00211 µg/mL

Question: And the slope (chloroquine [4])?
Answer: 4.03

Question: And the slope (artesunate [5])?
Answer: 10

Question: What does the source list for “Plasmodium falciparum isolate 270 (pfmdr1 allele: 86N, 1042N, pfmdr1 copies: 2)”?
Answer: EC50 of parasite growth (chloroquine [1]): 0.124 µg/mL; EC50 of parasite growth (artesunate [2]): 0.00101 µg/mL; EC50 of parasite growth (mefloquine [3]): 0.145 µg/mL; slope (chloroquine [4]): 1.81; slope (artesunate [5]): 10; slope (mefloquine [6]): 3.23

Growth of fresh clinical P. falciparum isolates by hypoxanthine uptake over 42 h; for most isolates 1.6-1,647 nM mefloquine, 0.044-87 nM artesunate, 10-10,256 nM chloroquine, 2.4-236 nM lumefantrine. EC50, lower = more sensitive; slope from the same fit, higher = steeper. No active / inactive call. Fits with a coefficient of variation above 100% are not listed here; 15-28% of fits exceed 15%. Isolates are numbered anew.
